From PubChem BioAssay AID686970 (National Center for Advancing Translational Sciences (NCATS), 2013)
Hit rate of the full screen: of about 360,000 compounds, about 6,000 (1.7%) were called active. Not shown: some 8% with an inconclusive outcome. Calls come from the whole dose curve; as a rule, active = well fitted cell-killing curve with a large enough effect; inconclusive = small, poorly fitted or top-dose-only effect, or effect the other way; inactive = flat fitted curve, though single readings scatter. The entries are a selection whose mix differs from that of the whole data set.

Experiment: qHTS for induction of synthetic lethality in tumor cells producing 2HG: qHTS for the HT-1080-NT fibrosarcoma cell line; note: nearly all actives have a fitted effect of over 55% in size
Settings: HT-1080-NT fibrosarcoma viability, CellTiter-Glo ATP luminescence, 48 h; series mostly up to 46.1 µM; activity, negative = less viability: at the top concentration
Excerpt: Unbiased genomic sequencing for 22 glioma genomes found recurrent mutation of IDH1 on chromosome 2q33, a gene encoding the cytosolic isoform of IDH1 associated with the tricarboxylic acid cycle (TCA) that catalyzes the oxidative decarboxylation of isocitrate, yielding alpha-ketoglutarate and CO2 via NADP+ to NADPH conversion. Subsequent studies confirmed the recurrent IDH mutations in up to 70% of secondary gliomas and in 10% of AML cases. In addition, the somatic mutation of cancer-associated IDH1 is a point mutation resulting in various amino-acid substituents at Arginine132 (IDH1 R132), a key residue found in the enzyme's active site that when mutated, results in the loss-of-function in metabolizing isocitrate but confers a gain-of-function to produce the oncometabolite 2-hydroxyglutarate (2HG). This in effect defines IDH1 as an oncogene and provides an extraordinary opportunity to discover chemical probes against mutant IDH1 that may translate into much needed new therapies for glioma and AML patients.
This assay aims to perform a synthetic lethal screen for chemical probes specific for 2HG-producing tumor cells using matched paired cell lines (1) HT-1080-NT fibrosarcoma cell line that overproduces 2HG and (2) HT-1080-IDH1KD cell line which has IDH1 expression knocked-down. Desirable compounds are toxic to the NT fibrosarcoma cells but not to the IDH1KD cell line. The data in this AID corresponds to the results of the qHTS against the HT-1080-NT fibrosarcoma cell line.
[1] Dang L, Jin S, Su SM. IDH mutations in glioma and acute myeloid leukemia. Trends of Mol Med. 2010; 16(9): 387-97.
[2] Dang L et al. Cancer-associated IDH1 mutations produce 2-hydroxyglutarate. Nature. 2010; 465(7300):966.
NIH Molecular Libraries Probe Production Centers Network [MLPCN]
NIH Chemical Genomics Center [NCGC]
Assay Submitter (PI): Lenny Dang Ph.D., Agios Pharmaceuticals
Suspensions of trypsinized HT-1080-NT cells were dispensed into white, tissue culture-treated, solid 1536-well plates at 5uL/well (750 cells/well final concentration) in RPMI medium supplemented with 5% FBS. Plates were incubated at 37 degrees C for 2 hours, after which 23 nL of compounds or DMSO were delivered to each well using a pin tool. Plates were then incubated at 37 degrees C for an additional 48 hours. CellTiter-Glo viability reagent (Promega) was dispensed into wells (2.5uL/well) and incubated at room temperature for 10 minutes. The plates were measured on a PerkinElmer ViewLux plate reader for luminescent signal (clear filter, 1 sec exp). DMSO-treated control wells and media-only (no cells) control wells were used to normalize %Activity of identified toxic compounds; DMSO-treated wells corresponded to 0%Activity (100% viability), while media-only controls were used to normalize 100%Activity (0% viability).
Concentration-response curves were fitted to the signals arising from the resulting luminescence. The concentration-effect curves were then classified based on curve quality (r2), response magnitude and degree of measured activity, and compounds were subsequently categorized based on their curve class.
Potency is the fitted concentration of half-maximal effect.

SMILES | activity, negative = less viability | Potency
CCc1nn(CCCN2CCN(c3cccc(Cl)c3)CC2)c(=O)n1CCOc1ccccc1 | inactive: -17% | 
Nc1ncnc2nc[nH]c12 | inactive: 26.2% | 
OCC[C@@H]1C[C@@H](O)[C@H](O)[C@@]2(OCCc3ccccc32)O1 | inactive: 6.83% | 
O=c1cc(-c2ccc(O)cc2)oc2cc(O)c(C3OC(CO)C(O)C(O)C3O)c(O)c12 (stereo unspecified) | inactive: -13.8% | 
C=CC[C@@H](CC(=O)N[C@H](CO)Cc1ccccc1)C(=O)N[C@@H](COC(=O)[C@@H](CC=C)Cc1ccc(F)cc1)Cc1c[nH]c2ccccc12 | inactive: 1.8% | 
CC(C)Cc1ccc(C(C)C(N)=NCCc2ccccc2)cc1 (stereo unspecified) |  | active: 16.4 µM
C[C@H](O)[C@@H]1C(=O)N2CCc3c([nH]c4ccccc34)[C@@H]2C[C@@H]1N(C)C(=O)Nc1cc(Cl)cc(Cl)c1 |  | active: 16.4 µM
C=CC[C@@H](Cc1ccc(F)cc1)C(=O)OC[C@H]1CCCN1C(=O)[C@H](CC=C)CC(=O)N(CCO)Cc1ccccc1 | inactive: -9.97% | 
C[C@H](c1ccccc1)N1C[C@H](COCc2ccccc2)Oc2cc(N3CCC[C@H]3C(N)=O)ccc2S1(=O)=O | inactive: -25.7% | 
O=C(c1cc(Cl)cc(Cl)c1)N1CCC(=O)N(C(COCc2ccccc2)Cc2ccccc2)CC1 (stereo unspecified) | inactive: -12.3% | 
Cc1cccc(NC(=O)c2ccc([N+](=O)[O-])o2)c1C |  | active: 23.1 µM
CCc1nc2ccc(C(=O)Nc3cc(-c4ccccc4)ccc3OC)cn2c1N(CC)CCN(C)C |  | active: 18.4 µM
CCCCOc1cc(C(=O)OCCN(CC)CC)ccc1N | inactive: 0.461% | 
C#CCNC(=O)C1=C[C@H](c2ccccc2)[C@@H](CCCO)[C@H](OCC)O1 | inactive: 1.28% | 
O=C(CCc1ccccc1)N[C@@H]1c2ccccc2CC[C@@H]1OCc1ccccc1 | inactive: -0.769% | 
Cc1nc(NC(=O)/C=C/c2ccccc2)n[nH]1 |  | active: 9.2 µM
CC(=O)NC1C(O)OC(CO)C(O)C1O (stereo unspecified) | inactive: -14.6% | 
Cc1cccc(C2=N/C(=C/c3cccs3)C(=O)O2)c1 | inactive: 19.2% | 
C[C@]12C(=O)N(c3ccc(Cl)cc3)C(=O)N1[C@@H]1c3ccccc3OC[C@@H]1[C@H]2c1ccccc1 | inactive: 0.169% | 
CC(C)(C)OC(=O)C[C@H]1C/C=C\C[C@@H](CC(=O)NCCO)C(=O)NC[C@H](c2ccccc2)OC1=O | inactive: 6.69% | 
O=C(Oc1c(Cl)cc(Cl)c2cccnc12)c1cccs1 |  | active: 20.6 µM
CCOC(=O)N1C(=O)[C@](c2ccc(Cl)cc2)(C(C)C)N1C(=O)OCC | inactive: -20.5% | 
Oc1cc2c(cc1O)C1c3ccc(O)c(O)c3OCC1(O)C2 (stereo unspecified) | inactive: -24.4% | 

SMILES | activity, negative = less viability | Potency
CN(C)CCC(c1ccc(Br)cc1)c1ccccn1 (stereo unspecified) |  | inactive
COc1cc(/C=N/NC(=O)c2ccncc2)ccc1O | inactive: 2.3% | 
OCCN1CCN(CC(O)COc2ccc3ccccc3c2)CC1 (stereo unspecified) | inactive: -14.1% | 
Oc1cc2c(cc1O)C(c1ccccc1)CNCC2 (stereo unspecified) | inactive: -29.8% | 
C=CCOC(=O)C1=C[C@H](c2ccccc2)[C@@H](CCCO)[C@H](OCC)O1 | inactive: 4.35% | 
O=C1NC[C@H](CCCCN2C[C@H](Cc3ccccc3)N(CCC3CCCCC3)C(=O)C2=O)N(CCc2ccccc2)C1=O | inactive: 18.4% | 
Cc1ccc(CN2CCN(/N=C/C(Br)=C\c3ccccc3)CC2)cc1 | inactive: -2.25% | 
CCOC(=O)[C@@H]1[C@H]2COc3cc(OC)ccc3[C@@H]2N2C(=O)N(c3ccc(C)cc3)C(=O)[C@@]12C | inactive: 14.7% | 
C=CC[C@H](CC(=O)N[C@H](CO)Cc1ccccc1)C(=O)N[C@H](COC(=O)[C@H](CC=C)CC(=O)OC(C)(C)C)Cc1c[nH]c2ccccc12 | inactive: -6% | 
CN(C)CC[C@@H](c1ccc(Br)cc1)c1ccccn1 | inactive: -6.31% | 
COC(C[C@@H](O)C[C@@H](O)[C@@H](C)OCc1ccccc1)OC | inactive: -3.15% | 
CCCCCCN1C[C@@H](O)[C@H](n2cc(-c3ccc(F)cc3)nn2)C[C@@H]1c1ccccc1 | inactive: -3.7% | 
CC(C)c1ccc2[nH]c3c(c2c1)CCCC3=O |  | active: 20.6 µM
Cc1ccc(/C(C#N)=C\c2ccc(N3CCOCC3)o2)cc1 |  | active: 4.47 µM
COC(C[C@@H](O)C[C@H](O)[C@H](C)OCc1ccccc1)OC | inactive: 15.2% | 
O=C(NCCCn1ccnc1)/C(=C\c1ccco1)NC(=O)c1ccco1 | inactive: -2.62% | 
C[C@H](CO)N1C[C@H](C)[C@H](CN(C)C(=O)OCc2ccccc2)OCc2cnnn2CCCC1=O | inactive: 9.46% | 
COc1ccc(N2C(=O)C(Cl)=C(Oc3cccc(OC)c3)C2=O)cc1 |  | active: 18.4 µM
C[C@@H]1O[C@@H](O[C@H]2[C@H](Oc3cc(O)c4c(c3)O[C@H](c3ccc(O)cc3)CC4=O)O[C@H](CO)[C@@H](O)[C@@H]2O)[C@H](O)[C@H](O)[C@H]1O | inactive: 25.4% | 
C=CCC[C@@H](Cc1ccc(F)cc1)C(=O)OC[C@@H](Cc1c[nH]c2ccccc12)NC(=O)[C@@H](CC=C)CC(=O)N[C@H](CO)Cc1ccccc1 | inactive: -20.3% | 
Cc1ccc(C(=O)N/C(=C\c2ccc(-c3cccc([N+](=O)[O-])c3)o2)C(=O)NCCCN2CCOCC2)cc1 |  | active: 18.4 µM
CCOC(=O)[C@@H]1[C@H]2COc3cc(OC)ccc3[C@H]2N2C(=O)N(c3cccc(C)c3)C(=O)[C@]12C | inactive: -0.28% | 
CCOC(=O)[C@@H]1[C@H]2COc3cc(OC)ccc3[C@H]2N2C(=O)N(c3ccc(C(F)(F)F)cc3)C(=O)[C@@]12C | inactive: 0.441% | 

SMILES | activity, negative = less viability | Potency
COc1ccc(/C=N/OC(=O)Nc2ccccc2OC)cc1 |  | active: 9.2 µM
Cc1ccc(C(O)(C(=O)NNc2ccc3ccccc3n2)c2ccc(C)cc2)cc1 | inactive: -25.2% | 
O=C(NCCNC1CCC(c2ccccc2)CC1)c1ccc(F)cc1 (stereo unspecified) |  | active: 20.6 µM
CCCCOc1ccc(CC(=O)NO)cc1 | inactive: -19.5% | 
CCN1CCN(c2nc(-c3ccccc3)c3ccccc3n2)CC1 |  | active: 13 µM
O=C(Nc1ccc(N2CCOCC2)cc1)c1ccc([N+](=O)[O-])o1 |  | active: 7.31 µM
CC(C)(C)[C@@H]1COC(=O)[C@H](Cc2ccc(F)cc2)CC/C=C\C[C@@H](CC(=O)N(CCO)Cc2ccccc2)C(=O)N1 | inactive: -8.1% | 
C/C=C/Cn1c(SCCCc2ccccc2)nc2c1c(=O)[nH]c(=O)n2C | inactive: -10.8% | 
Oc1ccc(C[C@@H]2CNCCN2CCCCC2CCCCC2)cc1 | inactive: -21.6% | 
OCC[C@H]1C[C@H](O)[C@@H](O)[C@@]2(CCCc3ccccc3O2)O1 | inactive: 16.8% | 
CCCCCCN1C[C@@H](n2cc(C3CC3)nn2)[C@H](O)C[C@@H]1c1ccc(C)cc1 | inactive: -27.6% | 
OCC[C@@H]1C[C@H](O)[C@@H](O)[C@]2(Cc3ccccc3O2)O1 | inactive: 9.35% | 
C=CC1=C(C(=O)O)N2C(=O)[C@@H](NC(=O)/C(=N\OCC(=O)O)c3csc(N)n3)[C@H]2SC1 | inactive: 6.56% | 
C=CCc1ccccc1OCC(O)CN1CCN(c2ccccc2OC)CC1 (stereo unspecified) | inactive: -27.4% | 
CC(=O)OCC(=O)C1(O)CCC2C3CCC4=CC(=O)C=CC4(C)C3C(=O)CC21C (stereo unspecified) | inactive: 1.94% | 
CCOC(=O)[C@@H]1[C@H]2COc3cc(OC)ccc3[C@@H]2N2C(=O)N(c3cccc(C)c3)C(=O)[C@@]12C | inactive: 3.53% | 
Oc1c(C=C2N=c3ccccc3=N2)sc(=S)n1-c1ccc(F)cc1 | inactive: 15.3% | 
Cc1cc(C)nc(NC(N)=NCCc2ccccc2)n1 |  | active: 10.3 µM
COc1ccc([C@@]2(C(C)C)ON(c3ccccc3C(F)(F)F)C2=O)cc1 | inactive: -14.2% | 
O[C@@H]1C[C@H](c2ccc(Cl)cc2)N(Cc2cccs2)C[C@H]1n1cc(C2CC2)nn1 | inactive: 9.03% | 
Cc1ccc(N/N=C(\Cc2nc3ccccc3[nH]2)c2ccccc2)cc1 |  | active: 1.3 µM
CC1=CC(C)(C)Nc2ccccc21 | inactive: -16.8% | 
COc1ccc(C2CC(=O)c3c(O)cc(O)cc3O2)cc1O (stereo unspecified) | inactive: 0% | 

SMILES | activity, negative = less viability | Potency
O=C(Nc1ccccc1)/C(=C/c1ccccc1)NC(=O)c1ccco1 | inactive: -22.2% | 
Nc1ncnc2c1ncn2C1O[C@H](CO)[C@@H](O)[C@@H]1O (stereo partly specified) | inactive: -1.8% | 
O=C(O)CC/C(=C\c1cccc(NC(=O)c2ccccc2Cl)c1)c1nc2ccccc2s1 | inactive: -5.49% | 
CC1=NN(c2nc3ccccc3[nH]2)C(=O)/C1=C/N(C)C |  | active: 20.6 µM
OCC[C@H]1C[C@@H](O)[C@H](O)[C@]2(CCCc3ccccc3O2)O1 | inactive: 14.7% | 
N#C/C(=C/c1cccs1)c1nc2ccccc2[nH]1 | inactive: -21.9% | 
O=C(Nc1ccc(F)cc1)c1nn(-c2ccccc2)c(=O)cc1Cl |  | active: 18.4 µM
CC(=C/c1ccco1)/C=N/N1CCN(c2ccccc2)CC1 | inactive: 1.55% | 
CCN(CC)CCn1nc2c3c(cccc3c1=O)-c1ccccc1-2 |  | active: 14.6 µM
O=C1C(Cc2ccccc2)Nc2ncnc(N3CCCCC3)c2N1Cc1ccc(Br)cc1 (stereo unspecified) | inactive: -12% | 
O=C(Nc1nc2ccccc2s1)c1cnccn1 |  | active: 2.82 µM
CC(=O)C[C@H](O)CC(=O)[C@H]1OC(=O)CCCCCCc2ccccc21 | inactive: 5.02% | 
CCOC(=O)[C@@H]1[C@H]2COc3ccccc3[C@@H]2N2C(=O)N(c3ccc(Cl)cc3)C(=O)[C@]12C | inactive: -14.7% | 
COc1ccccc1N1CCN(CC(O)COc2cccc3ccccc23)CC1 (stereo unspecified) | inactive: -23.1% | 
O=C1NC[C@H](CCCCN2C[C@H](Cc3ccc(O)cc3)N(CCC3CCCCC3)C(=O)C2=O)N(CC2CCCCC2)C1=O | inactive: 17.1% | 
O=C(C1=C[C@H](c2ccc(Br)cc2)C[C@H](OCc2ccc(CO)cc2)O1)N1CCOCC1 | inactive: 17.7% | 
CC12C=CC(=O)C=C1CCC1C2C(=O)C[C@@]2(C)C1CCC2(O)C(=O)CO (stereo partly specified) | inactive: -7.99% | 
COc1cc(/C=C2\S/C(=N/S(=O)(=O)Cc3ccccc3)NC2=O)c([N+](=O)[O-])cc1OC | inactive: -9.13% | 
CCN1CCc2nc(N)oc2CC1 | inactive: 24.7% | 
NC(N)=N/N=C/c1ccc(OCc2ccc(Cl)cc2)cc1 |  | active: 15.8 µM
Oc1c(C=C2N=c3ccccc3=N2)sc(=S)n1C1CCCCC1 | inactive: 27% | 
CCCCn1c(SCC(N)=O)nc2c(sc3ccccc32)c1=O |  | active: 22.4 µM
